Measurements from patent US20060057673A1, “Epitope analogs” (priority 2004, published 2006).
“Also recorded” adds a separate entry of the source. At least one peptide structure holds a part that was inferred or is arguable (an end, a ring closure or a residue). Where a SMILES comes first, the peptide text is derived from it. [ ]: non-standard residue; d: D form. Phe(4-NO2) = N[C@@H](Cc1ccc([N+](=O)[O-])cc1)C(=O)O; Nva = CCC[C@H](N)C(=O)O

Tests used:
[1] = test system: T cells that recognized native PSMA288-297 peptide; assay: IFN-gamma ELISPOT of splenocytes after PSMA peptide immunization or boost; format: in vivo, HHD transgenic mice; details: splenocytes stimulated with native peptide; listed as 1297V
[2] = test system: LnCap cells; assay: Ex vivo cytotoxicity against PSMA+ human tumor cells (51Cr); format: in vivo; details: splenocytes stimulated ex vivo with native peptide
[3] = test system: 624.38 cells; assay: Ex vivo cytotoxicity against human tumor cells after Tyrosinase analog boost (51Cr); format: in vivo; details: pSEM prime, peptide boost; splenocytes stimulated with native Tyrosinase369-377
[4] = test system: target cells coated with wild-type peptide; assay: In vivo cytotoxicity against wild-type NY-ESO-1 peptide coated target cells (CFSE); set-up: species or system HHD mice; details: plasmid immunization, peptide amplification
[5] = test system: splenocytes stimulated with wild-type peptide NY-ESO-1157-165; assay: Ex vivo IFN-gamma production after NY-ESO-1 analog boost (ELISA); format: in vivo, mice; details: 10 μM wild-type peptide, 3 and 6 days
[6] = test system: Tyrosinase specific CD8+ cells; assay: Tyrosinase tetramer staining after plasmid priming and peptide boost; format: in vivo, HHD transgenic mice; details: plasmid prime, peptide boost
[7] = test system: splenocytes loaded with Tyrosinase369-377; assay: In vivo cytotoxicity against natural Tyrosinase peptide coated splenocytes (CFSE); set-up: species or system HHD transgenic mice; details: pSEM prime, peptide boost
[8] = test system: T cell lines against natural epitope SSX-241-49; assay: Cross-reactivity and functional avidity: IFN-gamma production by T cell lines against SSX-2 41-49; format: cell-based, HHD transgenic mice; details: wild-type peptide specific T cell line / CTL
[9] = molecular target: HLA-A*0201 (Homo sapiens, UniProt P04439, D140Y/D185E/D98H/E176V/E277Q/G131W/G231S/I119V/I121R/I166T/I218V/L300P/L318F/N151K/N90K/P208A/P217A/Q86G/Q94H/R138H/R169H/T345S); assay: Peptide binding using T2 cells; set-up: endogenous in cells; host or cells: T2 cells

CC[C@H](C)[C@H](NC(=O)[C@H](CO)NC(=O)[C@@H]1CCCN1C(=O)[C@H](CC(C)C)NC(=O)CN)C(=O)N1CCC[C@H]1C(=O)N[C@H](C(=O)N[C@@H](Cc1c[nH]cn1)C(=O)N1CCC[C@H]1C(=O)N[C@H](C(=O)O)C(C)C)C(C)C [Peptide I297V]
Frequency of IFN-γ producing T cells recognizing native PSMA288-297 (ELISPOT) [1]: increased priming of immune responses; also recorded: considerably higher
Cytotoxicity against PSMA+ A2+ LnCap cells [2]: effective in mediating cytotoxicity

CSCC[C@H](NC(=O)[C@@H](NC(=O)CNC(=O)[C@H](CC(=O)O)NC(=O)[C@H](CCSC)NC(=O)[C@@H](N)Cc1ccc(O)cc1)[C@@H](C)O)C(=O)N[C@@H](CO)C(=O)N[C@@H](CCC(N)=O)C(=O)N[C@H](C(=O)O)C(C)C [Tyrosinase369-377, reference compound]
Cytotoxicity against 624.38 cells [3]: robust cytotoxicity

CCC[C@H](NC(=O)[C@@H](N)CO)C(=O)N[C@@H](CC(C)C)C(=O)N[C@@H](CCSC)C(=O)N[C@@H](Cc1c[nH]c2ccccc12)C(=O)N[C@H](C(=O)N[C@H](C(=O)N[C@@H](CCC(N)=O)C(=O)N[C@H](C(=O)O)C(C)C)[C@@H](C)O)[C@@H](C)CC [L158Nva C165V, SNvaLMWITQV]
In vivo cytotoxicity (% specific lysis) against wild-type NY-ESO-1 peptide coated cells [4]: substantial, constant cytotoxicity
IFN-gamma produced upon ex vivo re-stimulation with wild-type peptide [5]: large levels of IFN-gamma more rapidly

CC[C@H](C)[C@H](NC(=O)[C@@H]1CCCN1C(=O)[C@H](Cc1c[nH]cn1)NC(=O)[C@@H](NC(=O)[C@@H]1CCCN1C(=O)[C@@H](NC(=O)[C@H](CO)NC(=O)[C@@H]1CCCN1C(=O)[C@H](CC(C)C)NC(=O)CN)[C@@H](C)CC)C(C)C)C(=O)O [PSMA288-297, reference compound]
Cytotoxicity against PSMA+ A2+ LnCap cells [2]: able to lyse human tumor cells

CCC[C@H](NC(=O)[C@H](CCC(N)=O)NC(=O)[C@H](CO)NC(=O)[C@H](CCSC)NC(=O)[C@@H](NC(=O)CNC(=O)[C@H](CC(=O)O)NC(=O)[C@H](CCSC)NC(=O)[C@@H](N)Cc1ccc(O)cc1)[C@@H](C)O)C(=O)O [Peptide V377Nva]
Expansion of Tyrosinase-specific T cells (tetramer) [6]: similarly to the native peptide
Expansion of Tyrosinase-specific T cells (tetramer) ([6]; listed as 377Nva analog): preserved the expansion
Cytotoxic immunity against natural Tyrosinase epitope in vivo [7]: similarly to the native peptide

CCC[C@H](NC(=O)[C@H](CCC(N)=O)NC(=O)[C@H](CO)NC(=O)[C@H](CCSC)NC(=O)[C@@H](NC(=O)CNC(=O)[C@H](CC(=O)O)NC(=O)[C@@H](NC(=O)[C@@H](N)Cc1ccc(O)cc1)C(C)C)[C@@H](C)O)C(=O)O [M370V V377Nva] (H-YVDGTMSQ[Nva]-OH)
Cytotoxicity against 624.38 cells [3]: robust cytotoxicity

CC[C@H](C)[C@H](NC(=O)[C@H](CCCCN)NC(=O)[C@H](CCC(=O)O)NC(=O)[C@H](CO)NC(=O)[C@H](C)NC(=O)[C@@H](N)Cc1ccc([N+](=O)[O-])cc1)C(=O)N[C@@H](Cc1ccccc1)C(=O)N[C@@H](Cc1ccc(O)cc1)C(=O)N[C@H](C(=O)O)C(C)C [SSX2 41-49 (K41(Phe-4NO2))] (H-[Phe(4-NO2)]ASEKIFYV-OH)
Activity / cross-reactivity in IFN-gamma assay relative to wild-type SSX-2 41-49 [8]: much lower concentration
Binding affinity / binding profile with HLA-A*0201 relative to wild-type SSX-2 41-49 [9]: about the same as that of wild-type peptide
